Each structure is given as a SMILES string. The full ranking holds about 5,400 compounds; the median of “IFI” is about 2, and the highest 2% start at about 22. The list shows a part of the results.

The experiment in a line: NOVARTIS: Inhibition Frequency Index (IFI) - the number of HTS assays where a compound showed > 50% inhibition/induction, expressed as a percentage of the number of assays in which the compound was tested. The experiment is classed as functional.
`Cc1ccn2c(NC(C)(C)CC(C)(C)C)c(-c3ccccc3OC(=O)c3cccc(F)c3)nc2c1` displayed an IFI of 2.83%. The result for `c1ccc(Oc2ccc(Nc3nc4nonc4nc3Nc3ccc(Oc4ccccc4)cc3)cc2)cc1` reads 0%; that for `COc1cccc(C(=O)NCc2nnc(S)n2-c2ccc(Cl)c(Cl)c2)c1`, 0%; that for `CCCOc1ccc(C(=O)C2=C(O)C(=O)N(CCN3CCOCC3)C2c2ccc(F)cc2)c(C)c1` (stereo not drawn), 0%. The compound `NNc1ncnc2[nH]cnc12` yielded an IFI of 0%.

`CCCCCc1c(C)c(C#N)c2nc3ccccc3n2c1NCCN(CC)CC` came in with an IFI of 2.38%.

The compound `N#Cc1c(NC(=O)CCl)c(C(=O)c2ccccc2)n2c1CCC2` displayed an IFI of 0%. In turn, `O=c1c([N+](=O)[O-])cccn1Cc1ccc(F)cc1Cl` registered an IFI of 0%. As for `CCCNCC(O)COc1ccccc1C(=O)CCc1ccccc1` (stereo not drawn), the figure is 0.549%. Consider `COc1ccc(C2CC(=O)C3=C(C2)NC(C)=C(C(=O)OC2CCCCC2)C3c2ccc([N+](=O)[O-])cc2)cc1OC` (stereo not drawn), for which the IFI came to 4.82%. The result for `COC(=O)C1=C(C)NC2=C(C(=O)CC(c3ccc(OC)c(OC)c3)C2)C1c1cccc(Cl)c1Cl` (stereo not drawn) reads 4.82%.

The compound `O=C(Nc1ccc(Nc2cc([N+](=O)[O-])ccc2O)c2c1C(=O)c1ccccc1C2=O)c1ccccc1` returned an IFI of 7.69%. As for `CCOC(=O)c1sc(NC(=O)CSc2nnc(CNC(=O)COc3ccccc3)n2C)c(C(=O)OCC)c1C`, the figure is 1.19%; as for `CC1CCN(S(=O)(=O)c2ccc(C(=O)NCc3ccco3)cc2)CC1`, 0%; as for `Cc1ccccc1Nc1sc(C(=O)c2ccc([N+](=O)[O-])cc2)c(N)c1C(=O)Nc1ccccc1`, 0%. The result for `CCCC(c1nnnn1C1CCCCC1)N1CCN(C(=O)c2ccco2)CC1` (stereo not drawn) reads 0%; that for `CCCCCCCCC(=O)N1CCN(C(CC)c2nc3ccccc3c(=O)n2C)CC1` (stereo not drawn), 2.1%; that for `CCCOC(=O)C1=C(C)NC2=C(C(=O)CC(c3ccc(OC)cc3)C2)C1c1ccc([N+](=O)[O-])cc1` (stereo not drawn), 2.44%.

Take `CN(C)c1ccc(/C=C/c2cccc(/C=C/c3ccc(N(C)C)cc3)[n+]2C)cc1`: the IFI came out at 25%.

In the case of `CCOC(=O)c1ccc(NCc2c(C)[nH]c(C(=O)OCC)c2C)cc1`, the IFI came out at 0%. With `COc1ccc(-c2csc3ncnc(Cl)c23)cc1OC`, the IFI turned out to be 6.15%. As for `O=C(NCCCN1CCCC1=O)c1ccc2nc(N3CCOCC3)sc2c1`, the figure is 0%; as for `CCC(c1nc2ccccc2c(=O)n1-c1ccc(Cl)cc1)N(Cc1ccccc1)C(=O)Nc1c(C(C)C)cccc1C(C)C` (stereo not drawn), 0.917%; as for `COc1ccccc1NC(=O)C(=O)NCCc1ccc(OC)c(OC)c1`, 0%. Compound `Cc1cc(NCCN2CCCCC2)c2ccc3ccccc3c2n1` had an IFI of 7.02%. `CC(=O)Nc1ccc(-c2nc3c4ccccc4c4ccc(I)cc4c3[nH]2)cc1` returned an IFI of 4.69%.

`Nc1nc(N)c2c(Oc3ccccc3)cccc2n1` displayed an IFI of 14.3%.

`CCN(Cc1ccccc1)Cc1c(O)ccc2oc(C)c(C(=O)Nc3ccc(C)cc3C)c12`: the IFI turned out to be 0%. The result for `O=C1C(Cc2ccccc2)N=C2c3ccccc3N=C(SCc3ccc(Cl)cc3)N12` (stereo not drawn) reads 2.41%; that for `CC(C)NCC(O)c1ccc2ccccc2c1` (stereo not drawn), 0.885%; that for `CC(=O)c1cccc(S(=O)(=O)NCCCNc2nc3cc(C)cc(C)c3cc2C#N)c1`, 0%.

In turn, `Cc1cc(C)cc(NC(=S)NCCO)c1` displayed an IFI of 0%.

As for `COc1cc(Br)c(CCNC(=O)Cc2cc(OC)c(OC)cc2Br)cc1OC`, the IFI amounted to 3.01%. The compound `CCCCCN(C(=O)COCc1ccccc1)C(CC)c1nc2ccccc2c(=O)n1-c1cccc(Cl)c1` (stereo not drawn) came in with an IFI of 1.89%. As for `COc1ccc2ccccc2c1C1NC(SCc2ccc(F)cc2)=NC(C)=C1C(C)=O` (stereo not drawn), the figure is 0%; as for `N#Cc1c2c(c(N3CCN(C4CCCCC4)CC3)n3c1nc1ccccc13)CCC2`, 1.47%. The result for `COc1ccc(-c2c[n+](Cc3ccc(Cl)cc3Cl)c3n2CCC3)cc1` reads 4.76%. The result for `Cc1ccc(C=NNc2ncnc3nc[nH]c23)cc1` reads 0%.

With `CCOC(=O)c1cccc(NC(=O)CC2C(=O)N(c3ccccc3)C(=O)N2C2CCCC2)c1` (stereo not drawn), the IFI was found to be 0%. `Cc1cc(O)ccc1-c1cnc2ccccc2n1` showed an IFI of 0%.

`CN1C=C(c2ccc3ccccc3n2)C(C[N+](=O)[O-])c2ccccc21` (stereo not drawn): the IFI came to 16.7%. As for `CCOC(=O)N1CCC(NC(=O)CSCc2nc(-c3cccc(OC)c3)oc2C)CC1`, the figure is 0%; as for `N#Cc1c(N)nc(C(Cl)(Cl)Cl)nc1-c1ccccc1`, 1.47%; as for `CC1(C)N=C(N)N=C(N)N1c1ccc(F)cc1`, 0%.

The compound `CC1CN(C(=O)CCCSc2nnc(Cc3ccccc3)n2-c2ccc(Cl)c(Cl)c2)CC(C)O1` (stereo not drawn) yielded an IFI of 2.73%. As for `CCOc1ccc2c(c1)cc(CN(C(C)=O)C1CCCC1)c1nnnn12`, the figure is 1.82%; as for `N#Cc1c(N)nc(SCC(=O)c2ccc(Br)cc2)c(C#N)c1-c1ccccc1`, 5.75%. The result for `COC(=O)c1ccc(C(=O)Nc2ccc(-c3nc4cc(NC(=O)c5ccc(C(=O)OC)cc5)ccc4[nH]3)cc2)cc1` reads 1.51%; that for `CCOC(=O)N1CCN(C(=O)C(=O)NNC(=O)COc2ccc(Cl)cc2Br)CC1`, 0%. As for `CCc1ccc(NC(=O)c2ccc(F)c(S(=O)(=O)N3CCN(C)CC3)c2)cc1`, the figure is 0%; as for `CCCc1nc2ccc(NC(=O)c3ccco3)cc2c(=O)n1Cc1ccc(-c2ccccc2)cc1`, 5.46%.

Compound `O=C(Nc1nccs1)c1cc(-c2cccnc2)nc2ccc(Br)cc12` yielded an IFI of 0%. With `CC1N=C2c3ccccc3N=C(SCc3ccc(F)cc3)N2C1=O` (stereo not drawn), the IFI was determined as 3.53%. As for `CC(C)OCCCNc1sc(S(=O)(=O)c2ccccc2)nc1S(=O)(=O)c1ccc(Cl)cc1`, the figure is 0%.

With `CC(=O)N(C1=C(N2CCCC2)C(=O)c2ccccc2C1=O)c1cccc(F)c1`, the IFI amounted to 7.69%. As for `COc1ccc(C(=O)N(CCCC(C)Nc2cc(OC)cc3cccnc23)Cc2ccccc2OC)cc1` (stereo not drawn), the figure is 1.59%; as for `CCn1c2cc(C)sc2c2cnn(CC(=O)Nc3c(C)nn(C)c3C)c(=O)c21`, 0%; as for `C=CCCC(=O)N1CCC(C(=O)Nc2ccc(-c3nc4ccccc4o3)cc2)CC1`, 0%. `CCC(c1nc2ccccc2c(=O)n1-c1ccccc1OC)N(CCc1ccccc1)C(=O)c1ccc(C)cc1` (stereo not drawn) returned an IFI of 4.72%. As to `COc1ccc(OCCNC(=O)c2ccccc2Cl)cc1`, the IFI was found to be 7.69%. As for `CCCCN(C(=O)Nc1ccc(OCC)cc1)C(C)c1nc2ccccc2c(=O)n1-c1ccc(F)c(Cl)c1` (stereo not drawn), the figure is 11.7%. Compound `CCOc1ccc(-c2cn3c(n2)sc2cc(C(=O)NCCN(CC)CC)ccc23)cc1` displayed an IFI of 10.3%. As for `COc1ccc(NC(=O)c2cccc([N+](=O)[O-])c2C)cc1`, the figure is 0%.

Regarding `Cc1ccc(-c2cc(C)[n+](C)c(-c3ccc(C)cc3)c2)cc1`, the IFI is 10.6%. The result for `O=C(CN1C(=O)c2ccccc2C1=O)Nc1cc(Cl)ccc1C(=O)O` reads 7.69%; that for `CCOc1ccc(OCc2nnc(S)n2N)cc1`, 0%; that for `N#Cc1cc2nc3c(nc2cc1C#N)-c1ccccc1C3=O`, 0%. As for `CCN(CC)C(=O)N1CCN(c2ccc(Nc3ccnc4cc5ccccc5cc34)cc2)CC1`, the IFI amounted to 2.3%. `O=C1CSc2ccccc2N1`: the IFI worked out at 1.39%. As for `CCOC(=O)c1cnc2c(C)cccc2c1Nc1ccc(C(C)=O)cc1`, the figure is 0%; as for `CCN(c1ccc(F)cc1)S(=O)(=O)c1ccc2[nH]cc(C(=O)NC(C)(C)C)c(=O)c2c1`, 0%. As for `CCN1/C(=C\C=C2/SC(=S)N(c3ccccc3)C2=O)C(C)(C)c2cc(-c3ccccc3)ccc21`, the figure is 25%; as for `Clc1ccc2c(N3CCCC3)ccnc2c1`, 5.71%; as for `COc1ccc(C2=C(c3ccc(OC)cc3)C3(c4ccccc4)C(=O)C2(c2ccccc2)C2C(=O)N(c4cc(Cl)ccc4C)C(=O)C23)cc1` (stereo not drawn), 0%. As for `COc1ccc(Nc2c3c(nc4ccc(NC(=O)c5cc(=O)c6ccccc6o5)cc24)CCCC3)cc1OC`, the figure is 11.4%.

Take `Cc1ccc2[nH]c3c(NCCCN(C)C)ncnc3c2c1`: the IFI worked out at 11.8%.

`O=C(c1cc([N+](=O)[O-])cc([N+](=O)[O-])c1)N1CCN(c2cccc(C(F)(F)F)c2)CC1`: the IFI came to 5.04%. Compound `Oc1ccc(-c2ccc3c(c2)OCO3)cc1CNC1CCN(Cc2ccccc2)CC1` showed an IFI of 1.96%. The result for `CCOc1cc(C2CC(=O)NC3=C2C(=O)CC(c2cc(OC)ccc2OC)C3)ccc1O` (stereo not drawn) reads 0%. The result for `Cc1ccccc1OCCSc1nc2ccc(NC(=O)c3ccccc3)cc2s1` reads 0%; that for `CCC(CC)C(=O)N1CCOc2c(cc(-c3csc4ccccc34)cc2OCc2ccccn2)C1`, 1.74%; that for `C=CCn1c(COc2ccccc2C)nnc1SCC(=O)O`, 0%. The result for `O=C(CSc1nnc2c(n1)[nH]c1ccccc12)Nc1ccc([N+](=O)[O-])cc1` reads 2.29%; that for `O=C(NC1CCN(Cc2ccccc2)CC1)[C@@H](c1ccccc1)N1Cc2ccccc2C1=O`, 0%; that for `CC(C)CN1C(=O)c2ccccc2C(C(=O)NC2CCCCC2)C1c1cccs1` (stereo not drawn), 6.06%. As for `CN(C)c1ccc(-c2n(C)c3ccccc3[n+]2C)cc1`, the IFI is 6.25%. As for `CCCCOc1ccc(N(C(C)=O)C2=C(N3CCOCC3)C(=O)c3ccccc3C2=O)cc1`, the figure is 16.2%; as for `O=C(Cn1nc([N+](=O)[O-])nc1Br)NC1CCCCC1`, 0%; as for `O=C1CCC(CCNCc2ccc(Cl)cc2)N1CC1(N2CCCCC2)CCCC1` (stereo not drawn), 0.971%. As for `Cc1ccccc1Oc1cc(NC(=O)c2cc3n(n2)C(C(F)(F)F)CC(c2ccccc2)N3)cc(Oc2ccccc2C)c1` (stereo not drawn), the figure is 0.806%; as for `CC(C)OC(=O)CSc1nnc(CNc2nc(-c3ccccc3)cs2)n1C`, 0%; as for `CCC(C(=O)Oc1ccccc1-c1nc2ccccn2c1NC(C)(C)CC(C)(C)C)c1ccccc1` (stereo not drawn), 4.72%. The result for `CC(=O)Nc1sc(C)c(C)c1N=Nc1ccc(S(=O)(=O)O)cc1` reads 0%. Compound `CCCn1c(SCC(=O)Nc2ccccc2Cl)nc2c1c(=O)n(C)c(=O)n2C` yielded an IFI of 3.7%. `COc1ccc(-c2nc(NC(=O)CS(=O)(=O)c3ccc(F)cc3)sc2C)cc1` had an IFI of 0%.

`COC(=O)c1ccc2c(c1)C(=O)c1ccccc1C2C1c2ccccc2C(=O)c2cc(C(=O)OC)ccc21` (stereo not drawn): the IFI is 0%.

`CC(=NNc1nc2ccccc2s1)c1ccc([N+](=O)[O-])cc1`: the IFI is 0%. As for `CCOC(=O)C(=O)N1c2ccc(OCC)cc2-c2c(ssc2=S)C1(C)C`, the figure is 0%.

(Values after ChEMBL document CHEMBL1156829.)
